Test results: publication PMC12820563, “FoxP3 forms a head-to-head dimer in vivo and stabilizes its multimerization on adjacent microsatellites”
The list shows a part of the results.

What follows are sequences tested against T1, MBP-FoxP1dN (Mus musculus, UniProt P58462 326-579) (assay: PD-seq (MBP pull-down with sequencing); 20 mM Tris-HCl pH 7.5, 100 mM NaCl, 1.5 mM MgCl2, 0.4 uM protein, 0.1 uM dsDNA library, 30 min, room temperature, amylose pull-down; high values mean tight binding). Details: protein: recombinant; tags: His6-MBP; chain copies: 2; dsDNA, one strand shown.
T1 sequence: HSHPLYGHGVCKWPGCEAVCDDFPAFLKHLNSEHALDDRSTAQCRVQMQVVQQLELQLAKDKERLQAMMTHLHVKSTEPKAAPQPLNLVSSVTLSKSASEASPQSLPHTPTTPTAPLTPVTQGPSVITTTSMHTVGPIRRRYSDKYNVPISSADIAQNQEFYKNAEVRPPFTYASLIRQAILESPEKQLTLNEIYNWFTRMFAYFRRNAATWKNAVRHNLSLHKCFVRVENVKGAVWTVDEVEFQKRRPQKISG
How it was run: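 Binding is given as reads-per-million enrichment, pull-down over input, with replicates pooled. The bait was an N-terminus-lacking mouse FoxP3 or FoxP1 fragment with a His6-MBP tag, expressed in E. coli and used at 0.4 µM with 0.1 µM Klenow-filled degenerate double-stranded DNA library for 30 min at room temperature in Tris pH 7.5 buffer with NaCl and MgCl2. Amylose resin pull-down with three washes was followed by proteinase K release, PCR barcoding and Illumina sequencing.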
“GATGATTGTTCTCCCAGCTGATGAATTTCAGCCTTCGAGTAAACAAATTTTCCTAATCTTTCTGTTCAAGCGCCATCTAC” was tested, and the binding signal was 0.78 RPM ratio (pull-down/input).
In the case of “GATGATTGTTCTCCCAGCTGATGAATTTATATGATCGAGTAAACAAATTTTCCTAATCTTTCTGTTCAAGCGCCATCTAC”, the binding signal is reported as 1.14 RPM ratio (pull-down/input).
In the case of “GATGATTGTTCTCCCAGCTGATGAATTCAAACTGTCGAGTAAACAAATTTTCCTAATCTTTCTGTTCAAGCGCCATCTAC”, the binding signal is reported as 0.837 RPM ratio (pull-down/input).
“GATGATTGTTCTCCCAGCTGATGAATTTGTATTGTCGAGTAAACAAATTTTCCTAATCTTTCTGTTCAAGCGCCATCTAC” was tested, and the binding signal was 2.88 RPM ratio (pull-down/input).
With “GATGATTGTTCTCCCAGCTGATGAATTCTGCACTTCGAGTAAACAAATTTTCCTAATCTTTCTGTTCAAGCGCCATCTAC” the binding signal was 0.89 RPM ratio (pull-down/input).
In the case of “GATGATTGTTCTCCCAGCTGATGAATTGCACTACTCGAGTAAACAAATTTTCCTAATCTTTCTGTTCAAGCGCCATCTAC”, the binding signal is reported as 1.21 RPM ratio (pull-down/input).
For “GATGATTGTTCTCCCAGCTGATGAATTGCCACTCTCGAGTAAACAAATTTTCCTAATCTTTCTGTTCAAGCGCCATCTAC”, the binding signal was 1.02 RPM ratio (pull-down/input).
In the case of “GATGATTGTTCTCCCAGCTGATGAATTGTGACTGTCGAGTAAACAAATTTTCCTAATCTTTCTGTTCAAGCGCCATCTAC”, the binding signal is reported as 1.08 RPM ratio (pull-down/input).
For “GATGATTGTTCTCCCAGCTGATGAATTGGGATCGTCGAGTAAACAAATTTTCCTAATCTTTCTGTTCAAGCGCCATCTAC”, the binding signal was 0.853 RPM ratio (pull-down/input).
In the case of “GATGATTGTTCTCCCAGCTGATGAATTCACATTTTCGAGTAAACAAATTTTCCTAATCTTTCTGTTCAAGCGCCATCTAC”, the binding signal is reported as 1.02 RPM ratio (pull-down/input).
With “GATGATTGTTCTCCCAGCTGATGAATTAAAATAGTCGAGTAAACAAATTTTCCTAATCTTTCTGTTCAAGCGCCATCTAC” the binding signal was 0.95 RPM ratio (pull-down/input).
For “GATGATTGTTCTCCCAGCTGATGAATTAGAATTTTCGAGTAAACAAATTTTCCTAATCTTTCTGTTCAAGCGCCATCTAC”, the binding signal was 1.05 RPM ratio (pull-down/input).
For “GATGATTGTTCTCCCAGCTGATGAATTGACAGCTTCGAGTAAACAAATTTTCCTAATCTTTCTGTTCAAGCGCCATCTAC”, the binding signal was 1.07 RPM ratio (pull-down/input).
“GATGATTGTTCTCCCAGCTGATGAATTCTTGGCTTCGAGTAAACAAATTTTCCTAATCTTTCTGTTCAAGCGCCATCTAC” was tested, and the binding signal was 0.855 RPM ratio (pull-down/input).
With “GATGATTGTTCTCCCAGCTGATGAATTTGACGTCTCGAGTAAACAAATTTTCCTAATCTTTCTGTTCAAGCGCCATCTAC” the binding signal was 0.791 RPM ratio (pull-down/input).
For “GATGATTGTTCTCCCAGCTGATGAATTCGGTTTCTCGAGTAAACAAATTTTCCTAATCTTTCTGTTCAAGCGCCATCTAC”, the binding signal was 0.847 RPM ratio (pull-down/input).
In the case of “GATGATTGTTCTCCCAGCTGATGAATTGATTAGGTCGAGTAAACAAATTTTCCTAATCTTTCTGTTCAAGCGCCATCTAC”, the binding signal is reported as 0.991 RPM ratio (pull-down/input).
“GATGATTGTTCTCCCAGCTGATGAATTTACATCTTCGAGTAAACAAATTTTCCTAATCTTTCTGTTCAAGCGCCATCTAC” was tested, and the binding signal was 1.33 RPM ratio (pull-down/input).
In the case of “GATGATTGTTCTCCCAGCTGATGAATTAACGCCTTCGAGTAAACAAATTTTCCTAATCTTTCTGTTCAAGCGCCATCTAC”, the binding signal is reported as 0.993 RPM ratio (pull-down/input).
“GATGATTGTTCTCCCAGCTGATGAATTGTTGGTGTCGAGTAAACAAATTTTCCTAATCTTTCTGTTCAAGCGCCATCTAC” was tested, and the binding signal was 1.8 RPM ratio (pull-down/input).
In the case of “GATGATTGTTCTCCCAGCTGATGAATTACGCAGATCGAGTAAACAAATTTTCCTAATCTTTCTGTTCAAGCGCCATCTAC”, the binding signal is reported as 0.961 RPM ratio (pull-down/input).
“GATGATTGTTCTCCCAGCTGATGAATTACAAGTCTCGAGTAAACAAATTTTCCTAATCTTTCTGTTCAAGCGCCATCTAC” was tested, and the binding signal was 1.2 RPM ratio (pull-down/input).
With “GATGATTGTTCTCCCAGCTGATGAATTAGGCTACTCGAGTAAACAAATTTTCCTAATCTTTCTGTTCAAGCGCCATCTAC” the binding signal was 0.94 RPM ratio (pull-down/input).
In the case of “GATGATTGTTCTCCCAGCTGATGAATTACGTGCTTCGAGTAAACAAATTTTCCTAATCTTTCTGTTCAAGCGCCATCTAC”, the binding signal is reported as 1.04 RPM ratio (pull-down/input).
In the case of “GATGATTGTTCTCCCAGCTGATGAATTACGTGGGTCGAGTAAACAAATTTTCCTAATCTTTCTGTTCAAGCGCCATCTAC”, the binding signal is reported as 0.946 RPM ratio (pull-down/input).
“GATGATTGTTCTCCCAGCTGATGAATTGCTCCACTCGAGTAAACAAATTTTCCTAATCTTTCTGTTCAAGCGCCATCTAC” was tested, and the binding signal was 0.913 RPM ratio (pull-down/input).
For “GATGATTGTTCTCCCAGCTGATGAATTGGGAGTCTCGAGTAAACAAATTTTCCTAATCTTTCTGTTCAAGCGCCATCTAC”, the binding signal was 0.822 RPM ratio (pull-down/input).
“GATGATTGTTCTCCCAGCTGATGAATTTTATGAATCGAGTAAACAAATTTTCCTAATCTTTCTGTTCAAGCGCCATCTAC” was tested, and the binding signal was 0.942 RPM ratio (pull-down/input).
“GATGATTGTTCTCCCAGCTGATGAATTACTACCTTCGAGTAAACAAATTTTCCTAATCTTTCTGTTCAAGCGCCATCTAC” was tested, and the binding signal was 1.25 RPM ratio (pull-down/input).
In the case of “GATGATTGTTCTCCCAGCTGATGAATTGTTGAATTCGAGTAAACAAATTTTCCTAATCTTTCTGTTCAAGCGCCATCTAC”, the binding signal is reported as 1.15 RPM ratio (pull-down/input).
With “GATGATTGTTCTCCCAGCTGATGAATTGAGACGATCGAGTAAACAAATTTTCCTAATCTTTCTGTTCAAGCGCCATCTAC” the binding signal was 0.824 RPM ratio (pull-down/input).
